First the molecules themselves.
B1: Caulobacter ParB omega fusion; a variant is named by its letters at X, in order, B8GW30 (parent)
chain: MESVVVGEPGMSEGRRGLGRGLSALLGEVDAAPAQAPGEQLGGSREAPIEILQRNPDQPRRTFREEDLEDLSNSIREKGVLQPILVRPSPDTAGEYQIVAGERAWRAAQRAGLKTVPIMVRELDDLAVLEIGIIENVQRADLNVLEEALSYKVLMEKFERTQENIAQTIGKSXSHVANXMRLLXLPDEVQSYLVSGELTAXHARAIAAAADPVALAKQIIEGGLSVRETEALARKAPNLSAGKSKGGRPPRVKDTDTQALESDLSSVLGLDVSIDHRGSTGTLTITYATLEQLDDLCNRLTRGI

Whole data set: some 81,000 sequences, median “one-hybrid fitness for binding NBS DNA” near -0.1, cut for the highest 2% near 0.36. This is one part of the list.

The variants in this experiment derive from B1. Description: one-hybrid fitness for binding NBS DNA (the Noc-binding site; scaled: cognate 1, non-cognate 0); higher = stronger binding. The following applies: with NBS DNA site. A digest of the protocol:
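On M9-minus-histidine containing 0.1 mM IPTG and 5 mM 3-AT, E. coli USO cells with a HIS3 reporter, site 19 bp from the promoter, grew 48 hours at 37°C to select Caulobacter ParB libraries randomised at four specificity codons. Plasmids from before and after were Illumina-sequenced, with three replicate libraries pooled and variants under 10 reads left out. Fitness is the log change in variant-to-wild-type read ratio, rescaled against cognate and non-cognate.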
Consider FTAR, for which the “one-hybrid fitness for binding NBS DNA” value was ≤ 0.2.
As for KPAR, the “one-hybrid fitness for binding NBS DNA” value is ≤ 0.2.
For LYPP the value was ≤ 0.2; for CFPV, ≤ 0.2; for HVPN, ≤ 0.2.
In the case of MERR, the “one-hybrid fitness for binding NBS DNA” value is ≤ 0.2.
Then SKIK, with ≤ 0.2; and HDPP, with ≤ 0.2.
Then GLKA, with ≤ 0.2; and VQTR, with ≤ 0.2.
Then SAAW, with ≤ 0.2.
Consider PYGV, for which the “one-hybrid fitness for binding NBS DNA” value is ≤ 0.2.
For DVNT the value was ≤ 0.2; for TRNM, ≤ 0.2.
For NRES the value was ≤ 0.2; for FGQC, ≤ 0.2.
Regarding RFSW, the “one-hybrid fitness for binding NBS DNA” value was ≤ 0.2.
Then RNRD, with ≤ 0.2; and CITN, with ≤ 0.2.
For YRRG, the “one-hybrid fitness for binding NBS DNA” value was ≤ 0.2.
As to QKAQ, the “one-hybrid fitness for binding NBS DNA” value was ≤ 0.2.
For CIVI the value was ≤ 0.2.
For HYDL the value was ≤ 0.2; for QWER, ≤ 0.2.
For ENWG, the “one-hybrid fitness for binding NBS DNA” value was ≤ 0.2.
For STFF the value was ≤ 0.2; for NDHS, ≤ 0.2.
Then HRFE, with ≤ 0.2; and RHSI, with ≤ 0.2.
Then NDNV, with ≤ 0.2; and ANCF, with ≤ 0.2; and KLVS, with ≤ 0.2.
Turning to PMVT, the “one-hybrid fitness for binding NBS DNA” value is ≤ 0.2.
Take FCDG: the “one-hybrid fitness for binding NBS DNA” value was ≤ 0.2.
For DYYN, the “one-hybrid fitness for binding NBS DNA” value is ≤ 0.2.
Then PDKY, with ≤ 0.2; and HRNF, with ≤ 0.2; and TNAV, with ≤ 0.2.
On to PCMS, for which the “one-hybrid fitness for binding NBS DNA” value is ≤ 0.2.
For EVQA, the “one-hybrid fitness for binding NBS DNA” value is ≤ 0.2.
With VRRA, the “one-hybrid fitness for binding NBS DNA” value is 0.203.
Consider RCDK, for which the “one-hybrid fitness for binding NBS DNA” value was ≤ 0.2.
For LADL the value was ≤ 0.2; for ARFV, ≤ 0.2; for GVAG, ≤ 0.2.
Then KHHW, with ≤ 0.2; and PCCT, with ≤ 0.2; and RGSF, with ≤ 0.2.
Consider TIGL, for which the “one-hybrid fitness for binding NBS DNA” value was ≤ 0.2.
For the variant DPTL, the “one-hybrid fitness for binding NBS DNA” value is ≤ 0.2.
Turning to GWLC, the “one-hybrid fitness for binding NBS DNA” value is ≤ 0.2.
Consider YGYR, for which the “one-hybrid fitness for binding NBS DNA” value is ≤ 0.2.
For GCDA the value was ≤ 0.2; for CNLL, ≤ 0.2; for SELG, ≤ 0.2.
For ATTA the value was ≤ 0.2; for SAMW, ≤ 0.2.
For CPGE the value was ≤ 0.2.
As to PQLV, the “one-hybrid fitness for binding NBS DNA” value is ≤ 0.2.
Consider HMDR, for which the “one-hybrid fitness for binding NBS DNA” value was ≤ 0.2.
For HHPG the value was ≤ 0.2; for RCER, 0.245.
Then GKTL, with ≤ 0.2.
Turning to IAWR, the “one-hybrid fitness for binding NBS DNA” value was ≤ 0.2.
On to DAYL, for which the “one-hybrid fitness for binding NBS DNA” value was ≤ 0.2.
On to DAPR, for which the “one-hybrid fitness for binding NBS DNA” value is ≤ 0.2.
For TSSG the value was ≤ 0.2; for PSMK, ≤ 0.2.
Take PDPI: the “one-hybrid fitness for binding NBS DNA” value was ≤ 0.2.
Consider GGIR, for which the “one-hybrid fitness for binding NBS DNA” value was ≤ 0.2.
Take ASQA: the “one-hybrid fitness for binding NBS DNA” value was ≤ 0.2.
For SPLT, the “one-hybrid fitness for binding NBS DNA” value is ≤ 0.2.
As for EIEG, the “one-hybrid fitness for binding NBS DNA” value is ≤ 0.2.
For ATAE the value was ≤ 0.2.
Then AGKL, with ≤ 0.2.
Take ENTS: the “one-hybrid fitness for binding NBS DNA” value is ≤ 0.2.
For FDMR the value was ≤ 0.2.

The values are drawn from a collection of fitness landscapes (doi:10.1016/j.celrep.2020.107928).
